Results taken from patent publication US9663496B2, “AMPK-activating heterocyclic compounds and methods for using the same” (Rigel Pharmaceuticals, Inc., priority 2010, dated 2017).
For at least one compound, name, drawing or mass did not settle the structure.

Target: AMPK
Experiment: AMPK activation, enzyme-linked immunosorbent assay
Assay type: biochemical
Conditions: EC50 for AMPK activation, ELISA
Method: Compounds were assayed for their ability to activate AMPK using an enzyme-linked immunosorbent assay. Reagents and procedures for measuring AMPK activation are well known and kits for AMPK activation assays are commercially available.

## O=C(Nc1ccc(-c2cccnc2)cc1)c1ccc(C(=O)N2CCN(Cc3ccc(F)cc3)CC2)cn1 [Compound 61, 5-(4-(4-fluorobenzyl)piperazine-1-carbonyl)-N-(4-(pyridine-3-yl)phenyl)picolinamide]
  EC50: < 500 nM

## O=C(Nc1cccc(Oc2ccccc2)c1)c1ccc(C(=O)N2CCN(Cc3ccc(F)cc3)CC2)cn1 [Compound 21, 5-(4-(4-fluorobenzyl)piperazine-1-carbonyl)-N-(3-phenoxyphenyl)picolinamide]
  EC50: < 500 nM

## COc1ccc(OC2CCCN(C(=O)c3ccc(C(=O)NC4CCN(Cc5ccc(C#N)cc5)CC4)nc3)C2)cc1 (centres unmarked) [Compound 274, N-(1-(4-cyanobenzyl)piperidin-4-yl)-5-(3-(4-methoxyphenoxy)piperidine-1-carbonyl)picolinamide]
  EC50: > 10000 nM

## N#Cc1ccc(CNC(=O)c2cccc(-c3ccc(C(=O)N4CCN(Cc5ccc(F)cc5)CC4)cn3)c2)cc1 [Compound 42, (6-(3-(4-cyanobenzylcarbamoyl)phenyl)pyridin-3yl)(4-(4-fluorobenzyl)piperazin-1-yl)methanone]
  EC50: 1000 to 5000 nM

## COc1ccc(-c2ccc(NC(=O)c3ccc(C(=O)N4CCN(Cc5ccc(F)cc5)CC4)cn3)cc2)cc1 [Compound 29, N-(4-(4-methoxyphenyl)phenyl)-5-(4-(4-fluorobenzyl)piperazine-1-carbonyl)picolinamide]
  EC50: 500 to 1000 nM

## O=C(Nc1ccc(Oc2ccccc2)cc1)c1ccc(C(=O)N2CCN(Cc3ccc(F)cc3)CC2)cn1 [Compound 16, 5-(4-(4-fluorobenzyl)piperazine-1-carbonyl)-N-(4-phenoxyphenyl)picolinamide]
  EC50: < 500 nM

## COc1ccc(C(=O)C2CCN(C(=O)c3ccc(C(=O)N[C@@H]4CCN(Cc5ccc(N6CCCC6)cc5)C[C@H]4F)cn3)CC2)cc1 (relative stereo) [Compound 352, N-((trans)-3-fluoro-1-(4-(pyrrolidin-1-yl)benzyl)piperidin-4-yl)-6-(4-(4-methoxybenzoyl)piperidine-1-carbonyl)nicotinamide]
  EC50: < 500 nM

## O=C(c1ccc(Nc2ccc(Cc3ccccc3)cc2)nc1)N1CCN(Cc2ccc(F)cc2)CC1 [Compound 30, (6-(4-benzylphenylamino)pyridin-3-yl)(4-(4-fluorobenzyl)piperazin-1-yl)methanone]
  EC50: 1000 to 5000 nM

## O=C(N[C@H]1CC[C@@H](Oc2cc(F)cc(F)c2)CC1)c1ccc(C(=O)N2CCC(Oc3ccc(F)cc3)CC2)cn1 [Compound 299, N-((cis)-4-(3,5-difluorophenoxy)cyclohexyl)-5-(4-(4-fluorophenoxy)piperidine-1-carbonyl)picolinamide]
  EC50: < 500 nM

## O=C(Nc1ccc(Cc2ccccc2)cc1)c1ccc(C(=O)N2CCN(Cc3ccc(F)cc3)CC2)cn1 [Compound 10, N-(4-benzylphenyl)-5-(4-(4-fluorobenzyl)piperazine-1-carbonyl)picolinamide]
  EC50: < 500 nM

## O=C(c1ccc(-c2ccc(OCc3ccccc3)cc2)nc1)N1CCN(Cc2ccc(F)cc2)CC1 [Compound 17, (4-(4-fluorobenzyl)piperazin-1-yl)(6-(4-(benzyloxy)phenyl)pyridin-3-yl)methanone]
  EC50: > 10000 nM

## N#Cc1ccc(-c2ccc(NC(=O)c3ccc(C(=O)N4CCN(Cc5ccc(F)cc5)CC4)cn3)cc2)cc1 [Compound 24, N-(4-(4-cyanophenyl)phenyl)-5-(4-(4-fluorobenzyl)piperazine-1-carbonyl)picolinamide]
  EC50: < 500 nM

## N#Cc1ccc(OC2CCN(C(=O)c3ccc(C(=O)NC4CCN(Cc5cocn5)CC4)cn3)CC2)cc1 [Compound 355, 6-(4-(4-cyanophenoxy)piperidine-1-carbonyl)-N-(1-(oxazol-4-ylmethyl)piperidin-4-yl)nicotinamide]
  EC50: > 10000 nM

## COc1cc(C#N)ccc1OC1CCN(c2ccc(C(=O)NC3CCN(Cc4ccc(C#N)cc4)CC3)nc2)CC1 [Compound 286, 5-(4-(4-cyano-2-methoxyphenoxy)piperidin-1-yl)-N-(1-(4-cyanobenzyl)piperidin-4-yl)picolinamide]
  EC50: < 500 nM

## N#Cc1ccc(CN2CCC(NC(=O)c3ccc(C(=O)N4CCN(Cc5ccc(F)cc5)CC4)nc3)CC2)cc1 [Compound 1, N-(4-(4-cyanobenzyl)piperidin-4-yl)-6-(4-(4-fluorobenzyl)piperizine-1-carbonyl)picolinamide]
  EC50: < 500 nM

## N#Cc1ccc(CN2CCC(NC(=O)c3ccc(C(=O)Nc4ccn(Cc5ccc(C#N)cc5)n4)cn3)CC2)cc1 [Compound 38, N^5-(1-(4-cyanobenzyl)-1H-pyrazol-3-yl)-N^2-(1-(4-cyanobenzyl)piperidin-4-yl)pyridine-2,5-dicarboxamide]
  EC50: 500 to 1000 nM

## COc1ccc(CN2CCC(NC(=O)c3ccc(C(=O)N4CCC(C(=O)c5ccc(OC)cc5)CC4)cn3)CC2)cc1 [Compound 163, 5-(4-(4-methoxybenzoyl)piperidine-1-carbonyl)-N-(1-(4-methoxybenzyl)piperidin-4-yl)picolinamide]
  EC50: < 500 nM

## Cc1ccc(OC2CCN(C(=O)c3ccc(C(=O)NC4CCN(Cc5cc(F)cc(F)c5)CC4)nc3)CC2)cc1 [Compound 293, N-(1-(3,5-difluorobenzyl)piperidin-4-yl)-5-(4-(p-tolyloxy)piperidine-1-carbonyl)picolinamide]
  EC50: < 500 nM

## O=C(c1ccc(Nc2cccc(-c3ccccc3)c2)nc1)N1CCN(Cc2ccc(F)cc2)CC1 [Compound 33, (6-(3-phenylphenylamino)pyridin-3-yl)(4-(4-fluorobenzyl)piperazin-1-yl)methanone]
  EC50: 5000 to 10000 nM

## COc1ccc(C(=O)C2CCN(C(=O)c3ccc(C(=O)Nc4ccc(Oc5ccc(F)cc5)nc4)nc3)CC2)cc1 [Compound 69, 5-(4-(4-methoxybenzoyl)piperidine-1-carbonyl)-N-(6-(4-fluorophenoxy)pyridin-3-yl)picolinamide]
  EC50: < 500 nM

## N#Cc1cccc(-c2ccc(NC(=O)c3ccc(C(=O)N4CCN(Cc5ccc(F)cc5)CC4)cn3)cc2)c1 [Compound 32, N-(4-(3-cyanophenyl)phenyl)-5-(4-(4-fluorobenzyl)piperazine-1-carbonyl)picolinamide]
  EC50: 500 to 1000 nM

## N#Cc1ccc(CN2CCC(NC(=O)c3ccc(C(=O)N4CCC(Cc5ccc(C(N)=O)cc5)CC4)cn3)CC2)cc1 [Compound 141, 5-(4-(4-carbamoylbenzyl)piperidine-1-carbonyl)-N-(1-(4-cyanobenzyl)piperidin-4-yl)picolinamide]
  EC50: 500 to 1000 nM

## O=C(Nc1ccc(Oc2ccc(F)cc2)cc1)c1ccc(C(=O)N2CCN(Cc3ccc(F)cc3)CC2)cn1 [Compound 60, 5-(4-(4-fluorobenzyl)piperazine-1-carbonyl)-N-(4-(4-fluorophenoxy)phenyl)picolinamide]
  EC50: < 500 nM

## Cc1ccc(CC2CCN(C(=O)c3ccc(C(=O)NC4CCN(Cc5ccc(C#N)cc5)CC4)nc3)CC2)cc1 [Compound 145, N-(1-(4-cyanobenzyl)piperidin-4-yl)-5-(4-(4-methylbenzyl)piperidine-1-carbonyl)picolinamide]
  EC50: < 500 nM

## COc1ccc(OC2CCN(C(=O)c3ccc(C(=O)NC4CCN(Cc5ccc(C#N)cc5)CC4)nc3)CC2)cc1 [Compound 143, N-(1-(4-cyanobenzyl)piperidin-4-yl)-5-(4-(4-methoxyphenoxy)piperidine-1-carbonyl)picolinamide]
  EC50: < 500 nM

## COc1ccc(C(=O)C2CCN(C(=O)c3ccc(C(=O)NC4CCNCC4)cn3)CC2)cc1 [Compound 445, 6-(4-(4-methoxybenzoyl)piperidine-1-carbonyl)-N-(piperidin-4-yl)nicotinamide]
  EC50: > 10000 nM

## COc1cc(C#N)ccc1OC1CCN(C(=O)c2ccc(C(=O)NC3CCN(Cc4ccc(C#N)cc4)CC3)nc2)CC1 [Compound 66, 5-(4-(4-cyano-2-methoxyphenoxy)piperidine-1-carbonyl)-N-(1-(4-cyanobenzyl)piperidin-4-yl)picolinamide]
  EC50: < 500 nM

## O=C(Nc1ccc(Oc2ccc(F)cc2)nc1)c1ccc(C(=O)N2CCN(Cc3ccc(F)cc3)CC2)cn1 [Compound 65, 5-(4-(4-fluorobenzyl)piperazine-1-carbonyl)-N-(6-(4-fluorophenoxy)pyridin-3-yl)picolinamide]
  EC50: < 500 nM

## N#Cc1ccc(OC2CCN(C(=O)c3ccc(C(=O)NC4CCN(Cc5ccc(F)cc5)CC4)cn3)CC2)cc1 [Compound 320, 6-(4-(4-cyanophenoxy)piperidine-1-carbonyl)-N-(1-(4-fluorobenzyl)piperidin-4-yl)nicotinamide]
  EC50: < 500 nM

## N#Cc1ccc(CN2CCC(NC(=O)c3ccc(C(=O)Nc4cnn(Cc5ccc(C#N)cc5)c4)cn3)CC2)cc1 [Compound 43, N^5-(1-(4-cyanobenzyl)-1H-pyrazol-4-yl)-N^2-(1-(4-cyanobenzyl)piperidin-4-yl)pyridine-2,5-dicarboxamide]
  EC50: 1000 to 5000 nM

## N#Cc1ccc(Oc2ccc(NC(=O)c3ccc(C(=O)N4CCN(Cc5ccc(F)cc5)CC4)cn3)cc2)cc1 [Compound 59, N-(4-(4-cyanophenoxy)phenyl)-5-(4-(4-fluorobenzyl)piperazine-1-carbonyl)picolinamide]
  EC50: < 500 nM

## N#Cc1ccc(S(=O)(=O)N2CCC(NC(=O)c3ccc(C(=O)N4CCN(Cc5ccc(F)cc5)CC4)cn3)CC2)cc1 [Compound 6, N-(4-((4-cyanophenyl)sulfonyl)piperidin-4-yl)-5-(4-(4-fluorobenzyl)piperazine-1-carbonyl)picolinamide]
  EC50: 500 to 1000 nM

## COc1cccc(Oc2ccc(NC(=O)c3ccc(C(=O)N4CCN(Cc5ccc(F)cc5)CC4)cn3)cc2)c1 [Compound 57, 5-(4-(4-fluorobenzyl)piperazine-1-carbonyl)-N-(4-(3-methoxyphenoxy)phenyl)picolinamide]
  EC50: < 500 nM

## CN1CCN(c2ccc(NC(=O)c3ccc(C(=O)N4CCN(Cc5ccc(F)cc5)CC4)cn3)cc2)CC1 [Compound 41, 5-(4-(4-fluorobenzyl)piperazine-1-carbonyl)-N-(4-(4-methylpiperazin-1-yl)phenyl)picolinamide]
  EC50: > 10000 nM

## CC(=O)Nc1cccc(OC2CCN(C(=O)c3ccc(C(=O)NC4CCN(Cc5cccc(OC(F)(F)F)c5)CC4)cn3)CC2)c1 [Compound 429, 6-(4-(3-acetamidophenoxy)piperidine-1-carbonyl)-N-(1-(3-(trifluoromethoxy)benzyl)piperidin-4-yl)nicotinamide]
  EC50: 500 to 1000 nM
